B1: PhoQ; a variant is named by its letters at X, in order, P23837 (parent)
chain: MKKLLRLFFPLSLRVRFLLATAAVVLVLSLAYGMVALIGYSVSFDKTTFRLLRGESNLFYTLAKWENNKLHVELPENIDKQSPTMTLIYDENGQLLWAQRDVPWLMKMIQPDWLKSNGFHEIEADVNDTSLLLSGDHSIQQQLQEVREDDDDAEMTHSVAVNVYPATSRMPKLTIVVVDTIPVELKSSYMVWSWFIYVLSANLLLVIPLLWVAAWWSLRPIEALAKEVRELEEHNRELLNPATTRELTSLVRNLNRLLKSERERYDKYRTTLTDLTHSLKTPLXXLQXXLRSLRSEKMSVSDAEPVMLEQISRISQQIGYYLHRASMRGGTLLSRELHPVAPLLDNLTSALNKVYQRKGVNISLDISPEISFVGEQNDFVEVMGNVLDNACKYCLEFVEISARQTDEHLYIVVEDDGPGIPLSKREVIFDRGQRVDTLRPGQGVGLAVAREITEQYEGKIVAGESMLGGARMEVIFGRQHSAPKDE

The list shows a part of the results. Bounds are passed on as bounds.

Variants of B1 are the subject of the test. Kind of test: enrichment ratio after two sorts for PhoP signalling (ratio (wild type AVST 3.29)); higher = more functional. The note with it: with PhoP (E. coli).
Take IWNQ: the enrichment ratio was not above 0.25. NDFM: the enrichment ratio is not above 0.25. Then FFMW, with not above 0.25. With GKFW, the enrichment ratio is not above 0.25. In the case of MLIC, the enrichment ratio was not above 0.25.

Consider ADDG, for which the enrichment ratio was not above 0.25.

KVYA: the enrichment ratio was not above 0.25.

On to QGAA, for which the enrichment ratio is not above 0.25.

In the case of TMSP, the enrichment ratio is not above 0.25. Consider TNNE, for which the enrichment ratio is not above 0.25. On to DNTI, for which the enrichment ratio was not above 0.25. With TQPF, the enrichment ratio is not above 0.25. For DHMN the value was not above 0.25; for RDLR, not above 0.25; for HLNC, not above 0.25.

As for EFYC, the enrichment ratio is not above 0.25. With FMRW, the enrichment ratio is not above 0.25. Then GSSF, with 0.449; and ELRT, with not above 0.25. Then GRMG, with not above 0.25. Take RVIK: the enrichment ratio is not above 0.25. As for TMLN, the enrichment ratio was not above 0.25. As to QKHY, the enrichment ratio was not above 0.25. For QVCT the value was 3.53. On to PFFW, for which the enrichment ratio is not above 0.25. Consider AWHV, for which the enrichment ratio was not above 0.25. For LLTQ the value was not above 0.25; for DYVW, not above 0.25; for SLEK, not above 0.25. For the variant KCFC, the enrichment ratio is not above 0.25. In the case of QNWP, the enrichment ratio was not above 0.25. Then LHVC, with not above 0.25; and PTTD, with not above 0.25. Take VAWP: the enrichment ratio was not above 0.25. For the variant HNKG, the enrichment ratio is not above 0.25. For the variant AMYF, the enrichment ratio was 1.6.

As to PNTY, the enrichment ratio was found to be 0.61. For the variant QPFG, the enrichment ratio is not above 0.25.

Regarding YPKP, the enrichment ratio was not above 0.25.

In the case of MTAV, the enrichment ratio is 7.37. Consider FHVT, for which the enrichment ratio was not above 0.25. For TNLY the value was not above 0.25; for EYTK, not above 0.25; for AAIL, 2.69. In the case of FTPI, the enrichment ratio was not above 0.25. Then WHKF, with not above 0.25; and NHYE, with not above 0.25; and SDFF, with not above 0.25. Turning to YQYD, the enrichment ratio was not above 0.25. DEYM: the enrichment ratio is not above 0.25. Turning to NYRQ, the enrichment ratio was not above 0.25. Take LTND: the enrichment ratio was not above 0.25. For KSLW, the enrichment ratio is not above 0.25. In the case of FMEI, the enrichment ratio was not above 0.25. In the case of PIPD, the enrichment ratio is not above 0.25. Take NDCA: the enrichment ratio was not above 0.25.

ASRQ: the enrichment ratio is not above 0.25. Regarding REFS, the enrichment ratio is not above 0.25.

Turning to DQPP, the enrichment ratio was not above 0.25. WLPD: the enrichment ratio was not above 0.25.

On to DSTS, for which the enrichment ratio was not above 0.25.

As for RMIR, the enrichment ratio is not above 0.25. As to DNES, the enrichment ratio is not above 0.25. Turning to SYNN, the enrichment ratio is not above 0.25. For YHGR, the enrichment ratio was not above 0.25. On to LFVY, for which the enrichment ratio was not above 0.25. In the case of QRTF, the enrichment ratio was not above 0.25. As for QAGS, the enrichment ratio is 5.59. With WVYN, the enrichment ratio was not above 0.25. For KVMT the value was not above 0.25.

Take LEYL: the enrichment ratio was 0.302. With GYSW, the enrichment ratio was not above 0.25.

On to PVWV, for which the enrichment ratio is not above 0.25. As for KPVF, the enrichment ratio is not above 0.25. As to FPKL, the enrichment ratio was not above 0.25. VYGG: the enrichment ratio was not above 0.25.

As for REYP, the enrichment ratio was not above 0.25. In the case of KMGF, the enrichment ratio was not above 0.25. For the variant IGDR, the enrichment ratio was not above 0.25.

For RRWE, the enrichment ratio was not above 0.25.

Consider HMLT, for which the enrichment ratio was not above 0.25.

Take RPGG: the enrichment ratio was not above 0.25.

In the case of YRDY, the enrichment ratio was not above 0.25. HHPK: the enrichment ratio is not above 0.25.

On to AFIE, for which the enrichment ratio was not above 0.25. For WKGW, the enrichment ratio was not above 0.25.

Take PWTE: the enrichment ratio is not above 0.25.

In the case of DFRK, the enrichment ratio was not above 0.25.

Turning to VCSR, the enrichment ratio is not above 0.25.

For MIAT, the enrichment ratio was found to be 12.1. On to QFAC, for which the enrichment ratio was not above 0.25. Consider ESQF, for which the enrichment ratio was not above 0.25. As to WPIF, the enrichment ratio is not above 0.25. With HFFT, the enrichment ratio is not above 0.25. For DTYD the value was not above 0.25; for QKVC, not above 0.25; for VYGS, not above 0.25. Turning to MRGR, the enrichment ratio is not above 0.25. Turning to HMYF, the enrichment ratio was determined as 0.849. As to MCAK, the enrichment ratio was found to be 21.4. Then HFII, with not above 0.25; and GHMQ, with not above 0.25; and VTDR, with not above 0.25. For GLFD the value was not above 0.25; for NCLI, 0.397.

For the variant WDAV, the enrichment ratio is not above 0.25. Take IRGG: the enrichment ratio is not above 0.25. In the case of PTAP, the enrichment ratio is not above 0.25. Then PEVA, with not above 0.25; and WMAR, with not above 0.25. In the case of DETD, the enrichment ratio was not above 0.25.

With VIMI, the enrichment ratio is not above 0.25. MAVY: the enrichment ratio is not above 0.25. For the variant VEAP, the enrichment ratio was not above 0.25. Then HYMA, with not above 0.25; and TTGE, with not above 0.25; and WAYA, with not above 0.25. As for YFCK, the enrichment ratio is not above 0.25. For FGAW, the enrichment ratio was not above 0.25. On to TMEN, for which the enrichment ratio was not above 0.25.

Turning to HLRQ, the enrichment ratio was not above 0.25. For the variant WMHQ, the enrichment ratio is not above 0.25. Then THIN, with not above 0.25; and GEYE, with not above 0.25. As for RNED, the enrichment ratio is not above 0.25.

On to GTSN, for which the enrichment ratio is not above 0.25. Take QLII: the enrichment ratio is not above 0.25. Then TNQD, with not above 0.25; and RFIW, with not above 0.25.

As for NDQR, the enrichment ratio is not above 0.25. Then NWCV, with not above 0.25.

With PRMP, the enrichment ratio was not above 0.25. Consider AYHV, for which the enrichment ratio is not above 0.25. Regarding YQCE, the enrichment ratio was not above 0.25. As for VFGA, the enrichment ratio was not above 0.25. Then APDR, with not above 0.25; and TELS, with 12.5; and KDIV, with not above 0.25. Then VWGC, with not above 0.25. For DAFD, the enrichment ratio was not above 0.25.

With IAFN, the enrichment ratio was not above 0.25. In the case of DSHS, the enrichment ratio is not above 0.25.

For VESY, the enrichment ratio was not above 0.25.

Turning to NRAQ, the enrichment ratio is not above 0.25. As to MIYD, the enrichment ratio stood at 9.39. Take WMNL: the enrichment ratio is not above 0.25. For YRFT the value was not above 0.25; for FEKC, not above 0.25; for NDPC, not above 0.25.

For SSAS, the enrichment ratio came to 9.58.

PSGE: the enrichment ratio was 0.442. On to GFQA, for which the enrichment ratio was not above 0.25. For the variant SMTS, the enrichment ratio worked out at 7.7.

For SMGK, the enrichment ratio was not above 0.25.

In the case of YAGQ, the enrichment ratio was not above 0.25. Take MEPD: the enrichment ratio was not above 0.25.

For RCPM, the enrichment ratio was not above 0.25. For YSLR, the enrichment ratio is not above 0.25. As to GFMM, the enrichment ratio is not above 0.25. In the case of ESST, the enrichment ratio is not above 0.25. Then FICP, with not above 0.25; and PYYK, with not above 0.25; and PPES, with not above 0.25.

For the variant VFEA, the enrichment ratio was not above 0.25. For the variant MLNA, the enrichment ratio was not above 0.25. On to DTAF, for which the enrichment ratio was not above 0.25. On to KADL, for which the enrichment ratio is not above 0.25. On to GICQ, for which the enrichment ratio is 10.3. As to MGID, the enrichment ratio was not above 0.25. For VEAV, the enrichment ratio came out at 5.89.

For the variant TCVA, the enrichment ratio was not above 0.25. On to DDLH, for which the enrichment ratio is not above 0.25. VSCH: the enrichment ratio stood at 2.85. FKWT: the enrichment ratio was not above 0.25.

Take AMNY: the enrichment ratio was not above 0.25. Then MENR, with not above 0.25; and SHLD, with not above 0.25; and SVGT, with not above 0.25.

As for SASR, the enrichment ratio was not above 0.25.

Regarding FFTI, the enrichment ratio was not above 0.25. Take TEPF: the enrichment ratio is not above 0.25. With FHIT, the enrichment ratio is not above 0.25. Then NENK, with not above 0.25; and SWEV, with not above 0.25; and SDTS, with not above 0.25. Take IHKT: the enrichment ratio is not above 0.25. Turning to MMWV, the enrichment ratio is not above 0.25. For GHPK, the enrichment ratio is not above 0.25. As for YPNR, the enrichment ratio is not above 0.25. In the case of VQQY, the enrichment ratio is not above 0.25. PWQT: the enrichment ratio is not above 0.25. For the variant NRTD, the enrichment ratio was not above 0.25. In the case of VTTW, the enrichment ratio was not above 0.25. On to FGSP, for which the enrichment ratio was not above 0.25. On to QTIS, for which the enrichment ratio is not above 0.25.
